Sequences and labels used below:
B1: GPR68, Q15743 (parent)
chain: MGNITADNSSMSCTIDHTIHQTLAPVVYVTVLVVGFPANCLSLYFGYLQIKARNELGVYLCNLTVADLFYICSLPFWLQYVLQHDNWSHGDLSCQVCGILLYENIYISVGFLCCISVDRYLAVAHPFRFHQFRTLKAAVGVSVVIWAKELLTSIYFLMHEEVIEDENQHRVCFEHYPIQAWQRAINYYRFLVGFLFPICLLLASYQGILRAVRRSHGTQKSRKDQIQRLVLSTVVIFLACFLPYHVLLLVRSVWEASCDFAKGVFNAYHFSLLLTSFNCVADPVLYCFVSETTHRDLARLRGACLAFLTCSRTGRAREAYPLGAPEASGKSGAQGEEPELLTKLHPAFQTPNSPGSGGFPTGRLA

The variants in data set [1] derive from B1. Briefly: cAMP reporter score (Enrich2 score, wild type = 0); higher = more signal; HEK293T, FACS bins.
The variants in data set [2] derive from B1. Briefly: surface expression score (Enrich2 score, wild type = 0); higher = more signal; HEK293T, FACS bins.

For 32 variants, cAMP reporter score and surface expression score results are on record in the GPR68 mutational scans of Howard et al. (2025).

Scores whose standard error is large were omitted. Two further conditions of the source, in which the scores hardly spread, are not listed. Names with del lack the residues named; names with ins carry added residues between the positions named. For part of these data: How much ogerin was present is not stated here.

On to L201H, for which the cAMP reporter score was -2.47 in data set [1] (pH 5.5); -0.089 in data set [1] (pH 6); -1.17 in data set [1] (pH 6.5, modulator: ogerin). For the same variant, the surface expression score in data set [2] was -0.419.

For the variant L201S, the cAMP reporter score in data set [1] (pH 5.5) is 0.672; in data set [1] (pH 6), -1.43; in data set [1] (pH 6, modulator: ogerin) it was -1.44; in data set [1] (pH 6.5, modulator: ogerin), -1.04. In data set [2], the surface expression score was 0.381.

For the variant L201A, the cAMP reporter score in data set [1] (pH 5.5) is 0.207; in data set [1] (pH 6, modulator: ogerin), -1.62; in data set [1] (pH 6.5, modulator: ogerin) it was -1.43. In addition, the surface expression score in data set [2] was -0.685.

Turning to L201R, the cAMP reporter score in data set [1] (pH 5.5) is -2; in data set [1] (pH 6) it was -2.34; in data set [1] (pH 6, modulator: ogerin), -2.17; in data set [1] (pH 6.5, modulator: ogerin), -1.13. For the same variant, the surface expression score in data set [2] was -2.73.

In the case of L201M, the cAMP reporter score in data set [1] (pH 5.5) was 0.31; in data set [1] (pH 6), 0.791; in data set [1] (pH 6, modulator: ogerin) it was -0.214; in data set [1] (pH 6.5, modulator: ogerin), 0.344. In addition, the surface expression score in data set [2] amounted to 1.17.

In the case of L201P, the cAMP reporter score in data set [1] (pH 5.5) is -0.998; in data set [1] (pH 6) it was 0.217; in data set [1] (pH 6.5, modulator: ogerin) it was -0.76.

With Y205_G207del, the cAMP reporter score in data set [1] (pH 5.5) is -1.29; in data set [1] (pH 6), -1.53; in data set [1] (pH 6, modulator: ogerin), -1.46; in data set [1] (pH 6.5, modulator: ogerin), -1.12.

In the case of L201_L202insGSG, the cAMP reporter score in data set [1] (pH 5.5) was -1.58; in data set [1] (pH 6, modulator: ogerin), -2.63; in data set [1] (pH 6.5, modulator: ogerin) it was -1.92. Further, the surface expression score in data set [2] was -1.54.

For the variant A203_S204insGS, the cAMP reporter score is -0.868 in data set [1] (pH 5.5); -1.78 in data set [1] (pH 6, modulator: ogerin); -1.31 in data set [1] (pH 6.5, modulator: ogerin). Besides, the surface expression score in data set [2] was -2.02.

Consider A203_S204del, for which the cAMP reporter score was -1.56 in data set [1] (pH 5.5); -0.659 in data set [1] (pH 6); -1.49 in data set [1] (pH 6, modulator: ogerin); -0.864 in data set [1] (pH 6.5, modulator: ogerin). Further, the surface expression score in data set [2] is -2.18.

For the variant Y205_Q206insGSG, the cAMP reporter score in data set [1] (pH 5.5) was -1.38; in data set [1] (pH 6), -0.857; in data set [1] (pH 6, modulator: ogerin) it was -2; in data set [1] (pH 6.5, modulator: ogerin), -0.442. In data set [2], the surface expression score was -1.92.

With A203_Y205del, the cAMP reporter score was -1.81 in data set [1] (pH 5.5); -1.58 in data set [1] (pH 6); -1.62 in data set [1] (pH 6, modulator: ogerin); -0.948 in data set [1] (pH 6.5, modulator: ogerin). Further, the surface expression score in data set [2] is -1.47.

Consider Q206_G207insGS, for which the cAMP reporter score in data set [1] (pH 5.5) was -1.88; in data set [1] (pH 6) it was -1.19; in data set [1] (pH 6, modulator: ogerin) it was -1.18; in data set [1] (pH 6.5, modulator: ogerin), -0.996.

With S204_Y205insGSG, the cAMP reporter score was -0.536 in data set [1] (pH 5.5); -0.247 in data set [1] (pH 6); 0.107 in data set [1] (pH 6.5, modulator: ogerin). The surface expression score in data set [2] is -2.25.

For Y205G, the cAMP reporter score came to 0.298 in data set [1] (pH 5.5) and 1.25 in data set [1] (pH 6, modulator: ogerin).

For Y205I, the cAMP reporter score in data set [1] (pH 5.5) is -0.337; in data set [1] (pH 6), -1.98; in data set [1] (pH 6, modulator: ogerin), -2.51. Besides, the surface expression score in data set [2] is -1.15.

For the variant Y205Q, the cAMP reporter score in data set [1] (pH 5.5) was -0.277; in data set [1] (pH 6), 1.51; in data set [1] (pH 6, modulator: ogerin) it was -0.4; in data set [1] (pH 6.5, modulator: ogerin), -0.04. For the same variant, in data set [2], the surface expression score was -0.99.

Consider Y205W, for which the cAMP reporter score in data set [1] (pH 5.5) was -1.34; in data set [1] (pH 6), -0.928; in data set [1] (pH 6, modulator: ogerin), -1.88; in data set [1] (pH 6.5, modulator: ogerin) it was -0.957. Besides, the surface expression score in data set [2] was 0.042.

On to Y205M, for which the cAMP reporter score is -0.223 in data set [1] (pH 5.5); -1.53 in data set [1] (pH 6); -0.811 in data set [1] (pH 6, modulator: ogerin); -0.875 in data set [1] (pH 6.5, modulator: ogerin). In addition, in data set [2], the surface expression score was -0.899.

As for Y205K, the cAMP reporter score in data set [1] (pH 5.5) was -0.546; in data set [1] (pH 6) it was -1.06; in data set [1] (pH 6, modulator: ogerin) it was -1.47; in data set [1] (pH 6.5, modulator: ogerin) it was -0.835. The surface expression score in data set [2] was -1.84.

Y205L: the cAMP reporter score was -1.53 in data set [1] (pH 5.5); -1.34 in data set [1] (pH 6); -1.07 in data set [1] (pH 6, modulator: ogerin); -0.573 in data set [1] (pH 6.5, modulator: ogerin). The surface expression score in data set [2] was -0.676.

On to Y205V, for which the cAMP reporter score in data set [1] (pH 5.5) was -0.943; in data set [1] (pH 6), -0.235; in data set [1] (pH 6, modulator: ogerin), -1.1; in data set [1] (pH 6.5, modulator: ogerin), -0.426. Besides, the surface expression score in data set [2] is -1.95.

As to Y205F, the cAMP reporter score in data set [1] (pH 5.5) is -1.37; in data set [1] (pH 6) it was -0.882; in data set [1] (pH 6, modulator: ogerin), -2.41; in data set [1] (pH 6.5, modulator: ogerin), -1.08. Moreover, in data set [2], the surface expression score was -0.851.

On to Y205D, for which the cAMP reporter score is -1.07 in data set [1] (pH 5.5); -0.201 in data set [1] (pH 6); -1.05 in data set [1] (pH 6, modulator: ogerin); -0.584 in data set [1] (pH 6.5, modulator: ogerin). Further, the surface expression score in data set [2] was -2.57.

Consider Y205R, for which the cAMP reporter score in data set [1] (pH 5.5) is -1.57; in data set [1] (pH 6) it was -1.28; in data set [1] (pH 6, modulator: ogerin) it was -1.7; in data set [1] (pH 6.5, modulator: ogerin), -1.15. Besides, the surface expression score in data set [2] was -1.5.

Take Y205T: the cAMP reporter score in data set [1] (pH 5.5) is 0.37; in data set [1] (pH 6, modulator: ogerin), 0.475; in data set [1] (pH 6.5, modulator: ogerin) it was 0.135. Moreover, in data set [2], the surface expression score was -0.658.

In the case of Y205A, the cAMP reporter score in data set [1] (pH 5.5) is 0.461; in data set [1] (pH 6, modulator: ogerin), -0.1; in data set [1] (pH 6.5, modulator: ogerin) it was 1.65. Also, in data set [2], the surface expression score is -0.32.

In the case of Y205N, the cAMP reporter score in data set [1] (pH 5.5) is 1.87; in data set [1] (pH 6), 4.45; in data set [1] (pH 6, modulator: ogerin) it was 0.864; in data set [1] (pH 6.5, modulator: ogerin) it was 2.97. For the same variant, the surface expression score in data set [2] was -1.51.

For Y205C, the cAMP reporter score in data set [1] (pH 5.5) was -0.594; in data set [1] (pH 6), -0.398; in data set [1] (pH 6, modulator: ogerin) it was -0.709; in data set [1] (pH 6.5, modulator: ogerin) it was -0.014. Also, the surface expression score in data set [2] is -2.22.

Regarding Y205E, the cAMP reporter score in data set [1] (pH 5.5) is 0.243; in data set [1] (pH 6), -0.811; in data set [1] (pH 6, modulator: ogerin) it was -0.12; in data set [1] (pH 6.5, modulator: ogerin) it was -0.928. For the same variant, the surface expression score in data set [2] is -1.3.

Turning to L209A, the cAMP reporter score is 0.274 in data set [1] (pH 5.5); -0.871 in data set [1] (pH 6); -0.721 in data set [1] (pH 6, modulator: ogerin); -0.946 in data set [1] (pH 6.5, modulator: ogerin). For the same variant, the surface expression score in data set [2] was determined as 0.8.

For the variant L209C, the cAMP reporter score in data set [1] (pH 5.5) was 0.228; in data set [1] (pH 6, modulator: ogerin), -0.675; in data set [1] (pH 6.5, modulator: ogerin), -1.12. The surface expression score in data set [2] turned out to be 1.72.
